Reference: the supplement of paper PMC3334620
In all, about 33,000 sequences were measured (“E-score (-0.5 to 0.5)”: median about -0.056, highest 2% from about 0.38 on). This is one part of the list.

Target: Stb4 (UniProt P50104)
Assay: PBM E-score (8-mer binding enrichment) (E-score (-0.5 to 0.5)); higher = stronger / more preferred TF binding; most listed sequences are background and not binding sites
Details: protein concentration: 200 nM; construct: GST-DNA-binding domain
Method in brief: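 The E-score, a modified Wilcoxon-Mann-Whitney statistic, was computed by the Universal PBM Analysis Suite for every ungapped eight-base word pooled with its reverse complement. Scans behind it were normalised with masliner after bound GST-tagged yeast transcription factors were detected with fluorescent anti-GST. The proteins, at about 100-200 nM, had been applied to universal all-10-mer Agilent arrays made double-stranded by primer extension.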

| Sequence | PBM E-score |
| --- | --- |
| CGCAAGTC | -0.0818 |
| AGTGTATC | -0.0707 |
| AGTCCCCG | 0.183 |
| AATTGATC | -0.0375 |
| AGTGAGAT | -0.104 |
| CATAAGGG | 0.0843 |
| CCGCTGGC | -0.24 |
| GAAACACC | 0.0674 |
| AGCCTATA | -0.222 |
| GCCCACTA | -0.103 |
| CACTGTCC | -0.0706 |
| GTACTTTA | -0.112 |
| CCCAGCCG | 0.172 |
| AACTGATA | -0.108 |
| CTGCAACC | -0.186 |
| CTCTCCGC | 0.0798 |
| CATTTGAA | 0.0134 |
| CGTGCTGC | -0.0945 |
| GTTAGTTA | 0.1 |
| AATAGATG | -0.00998 |
| GCCGAGCC | 0.463 |
| ACACTCGA | -0.24 |
| AGAGGCGG | 0.178 |
| ATGACCGA | 0.165 |
| CTACCCGA | 0.464 |

| Sequence | PBM E-score |
| --- | --- |
| AAAAGTTC | 0.0147 |
| GGTACCAA | 0.148 |
| ATTTTCTA | 0.0386 |
| AAACTCTG | -0.154 |
| CGGGCACC | 0.247 |
| GGACCTTA | 0.0863 |
| CGTACTAG | -0.196 |
| CCCTAGGC | -0.0789 |
| TAGTGAAA | -0.178 |
| GGGACTAA | 0.0567 |
| AAAGGTGC | -0.0349 |
| AGCTGCTC | -0.195 |
| CAGCTTAC | -0.0162 |
| AAGTCCAA | 0.0221 |
| ATCGTACC | 0.0152 |
| GGTAGGCA | -0.0581 |
| AATTTCCA | -0.00015 |
| CACGCAAA | -0.175 |
| AGGTAGAA | -0.167 |
| AAAAGGGC | -0.141 |
| CGAGTTGA | 0.133 |
| GCACGGAA | 0.327 |
| GCGCATCA | -0.151 |
| GGACCAGA | -0.17 |
| TAAGACCA | -0.237 |

| Sequence | PBM E-score |
| --- | --- |
| CTCCACCA | -0.15 |
| GGTCTAAA | -0.0767 |
| ACATACGG | 0.0543 |
| ACTTTCTA | -0.0964 |
| GAAACAAC | 0.153 |
| CGAGCTGC | 0.232 |
| AAGCGACC | 0.0468 |
| TACAGGGA | -0.0915 |
| CGTCGGAC | 0.269 |
| GGGGGCTA | -0.19 |
| AGAACTGG | 0.0328 |
| AACGACCA | -0.223 |
| AATACTGA | -0.226 |
| AATGGCAT | 0.0295 |
| GGAGGACA | -0.014 |
| ATGCTTCA | -0.163 |
| CCACCTTA | -0.186 |
| CAGTGTCC | -0.0717 |
| GTCAGGAA | -0.0135 |
| AACCGGCT | 0.23 |
| ACGCTGAT | -0.187 |
| GTAAAATA | -0.0636 |
| ATAGCTTG | -0.104 |
| AATGAGCG | 0.00898 |
| CGATATCC | 0.282 |

| Sequence | PBM E-score |
| --- | --- |
| ACGGCGTC | 0.0418 |
| CGTATAAC | -0.0797 |
| AATTGGTG | -0.156 |
| GCGTCCAC | 0.00263 |
| CATTTCCA | -0.196 |
| GCTTAAAA | -0.111 |
| ATACTGCC | 0.106 |
| ACATCTAT | 0.0848 |
| CTCCAGAA | -0.188 |
| AACAAGTC | -0.111 |
| AAGACATA | -0.116 |
| CTCGGGGA | 0.349 |
| GGACATAA | 0.0468 |
| AGCACCCC | -0.164 |
| AGTGATGA | -0.0977 |
| GTGAGTTA | -0.211 |
| CGCGGGAA | 0.295 |
| GGAGATCA | 0.0421 |
| CAACTGAA | -0.155 |
| ATGGGGCA | -0.23 |
| CCGCCGAA | 0.4 |
| ACCCAGGC | 0.0532 |
| CTCGCAAG | -0.203 |
| AGTATTAA | 0.0862 |
| CTCGCCCC | -0.0101 |

| Sequence | PBM E-score |
| --- | --- |
| ATAATAAG | -0.0502 |
| TAGTAAGA | -0.204 |
| AGGCTAAC | -0.0968 |
| CGGCGGTC | 0.1 |
| CCTCACTC | -0.0197 |
| CAACACCC | 0.0649 |
| GTGTTGTA | -0.113 |
| CGGGCCAC | 0.137 |
| CCATCCTA | -0.149 |
| ATTAACCC | 0.212 |
| ACTAGTGA | -0.213 |
| TAGAATCA | 0.036 |
| CTCCCTTA | -0.139 |
| CCCATGTC | -0.0325 |
| GCCCAAGC | -0.0211 |
| CACGGGAC | 0.214 |
| AATGCGAC | -0.0177 |
| GGTCGCCA | -0.106 |
| AGTAGCGC | -0.181 |
| GCTTGGAC | -0.253 |
| GCAGCCGC | 0.154 |
| CTAAATTA | 0.0401 |
| AAAACTTG | -0.165 |
| CTCCATCC | -0.0108 |
| AACAACCA | -0.0284 |

| Sequence | PBM E-score |
| --- | --- |
| GGTATGGA | 0.087 |
| CATCACGG | 0.0595 |
| ACGCGTAG | -0.123 |
| GGATCTAC | 0.0795 |
| ATACAAGA | -0.166 |
| AACTGACC | 0.118 |
| CGATGTAA | -0.0849 |
| CCCAATGA | -0.164 |
| AAGGTGCT | -0.134 |
| TCGAAAGA | -0.317 |
| GACTAGGC | -0.159 |
| CTAAGCAC | -0.212 |
| CCCCGTTA | -0.0561 |
| CAGCCCAG | -0.109 |
| AGGAGGTC | -0.159 |
| AACGCTCT | -0.242 |
| AACTACGG | 0.143 |
| CGATCTTC | 0.215 |
| GTACTGAC | -0.0527 |
| ACATACCT | -0.163 |
| GCGATTCC | 0.109 |
| CTTACAAG | -0.186 |
| AAATTTGA | -0.101 |
| GCGGGTCA | 0.0978 |
| AGCCGTTA | 0.183 |

| Sequence | PBM E-score |
| --- | --- |
| CGGGCAGC | 0.211 |
| CACCCGCG | 0.262 |
| CTAGTCAG | -0.31 |
| GCCGCGGA | 0.241 |
| GAGACTAA | 0.101 |
| AGATGGTC | -0.121 |
| CAGAGTCA | -0.1 |
| TATTCCCA | 0.0571 |
| CGGATCCG | 0.462 |
| GGCCCTAA | -0.0555 |
| TATAGGGA | 0.00271 |
| ACTCCCCA | -0.149 |
| CGTAATCA | -0.16 |
| AGTGTCTA | -0.261 |
| CCGCCCCA | 0.306 |
| ATGGGTAA | 0.0979 |
| GTGGCAAC | -0.0139 |
| CTTACTCC | 0.00997 |
| CAACACCG | 0.0357 |
| CTATAGTC | -0.255 |
| AAGAGTAA | -0.0424 |
| ACTTACAA | -0.131 |
